Data taken from the supplement of paper PMC4604168 (melanoma cell lines).
The list shows a part of the results. Single values are uncertain, as repeats are few or missing.

Tested on: C32
Assay: cell count relative to DMSO control; melanoma cells; higher = more viable cells
Conditions: library dose: low library concentration; 72 h
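Also: cell number obtained by counting DAPI-stained nuclei in high-throughput microscope images with image analysis software, screen run in 1,536-well plates.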

How did the cell count turn out when `Nc1ncn([C@H]2C[C@H](O)[C@@H](CO)O2)c(=O)n1` [decitabine] + C[As](C)SC[C@H](NC(=O)CC[C@H](N)C(=O)O)C(=O)NCC(=O)O [Darinaparsin] (first compound 0.1 µM, partner dose 0.4 µM) was run?
Its cell count is 105%.

How did the cell count turn out when `Cn1sc(=O)n(Cc2ccccc2)c1=O` + N.N.[Cl][Pt][Cl] [cisplatin] (first compound 0.4 µM, partner dose 1.6 µM) was run?
The cell count was 98.2%.

How did the cell count turn out when `Cn1cnc2c(F)c(Nc3ccc(Br)cc3Cl)c(C(=O)NOCCO)cc21` [selumetinib] + C[C@]12O[C@H](C[C@]1(O)CO)n1c3ccccc3c3c4c(c5c6ccccc6n2c5c31)CNC4=O [Lestaurtinib] (first compound 0.015 µM, partner dose 0.004 µM) was run?
The cell count was 79.3%.

How did the cell count turn out when `O=C(Nc1cc(C(F)(F)F)cc(C(F)(F)F)c1)c1cc(Cl)ccc1O` + C[C@]12O[C@H](C[C@]1(O)CO)n1c3ccccc3c3c4c(c5c6ccccc6n2c5c31)CNC4=O [Lestaurtinib] (first compound 0.016 µM, partner dose 0.004 µM) was run?
The cell count was 92.5%.

Which cell count does the source give for `O=C(O)[C@@H]1[O][Sb](=[O])([O][Sb]2(=[O])[O][C@H]([C@H](O)CO)[C@H](O)[C@H](C(=O)O)[O]2)[O][C@H]([C@H](O)CO)[C@@H]1O` (stereo not given in full) [stibogluconate] + C[As](C)SC[C@H](NC(=O)CC[C@H](N)C(=O)O)C(=O)NCC(=O)O [Darinaparsin] (first compound 2 µM, partner dose 0.4 µM) here?
The cell count was 108%.

How did the cell count turn out when `Cc1cc(Nc2cc(N3CCN(C)CC3)nc(/C=C/c3ccccc3)n2)n[nH]1` + N.N.[Cl][Pt][Cl] [cisplatin] (first compound 0.04 µM, partner dose 1.6 µM) was run?
The cell count was 82.5%.

`CN(c1ncccc1CNc1nc(Nc2ccc3c(c2)CC(=O)N3)ncc1C(F)(F)F)S(C)(=O)=O` + C[As](C)SC[C@H](NC(=O)CC[C@H](N)C(=O)O)C(=O)NCC(=O)O [Darinaparsin] (first compound 0.08 µM, partner dose 0.4 µM) was tested. Which cell count did it give?
Its cell count is 81.8%.

With `C[C@@H](N)c1ccc(C(=O)Nc2ccnc3[nH]ccc23)cc1` + N.N.[Cl][Pt][Cl] [cisplatin] (first compound 0.4 µM, partner dose 1.6 µM) as the compound, how does the cell count read?
The cell count was 95.4%.

Which cell count does the source give for `OCc1c[nH]c2ccccc12` [Indole-3-carbinol] + C[As](C)SC[C@H](NC(=O)CC[C@H](N)C(=O)O)C(=O)NCC(=O)O [Darinaparsin] (first compound 0.8 µM, partner dose 0.4 µM) here?
Its cell count is 95.8%.

`C[C@@H](N)c1ccc(C(=O)Nc2ccnc3[nH]ccc23)cc1` + Cn1cc(C2=C(c3cn(C4CCN(Cc5ccccn5)CC4)c4ccccc34)C(=O)NC2=O)c2ccccc21 [Enzastaurin] (first compound 0.4 µM, partner dose 0.8 µM) was tested. Which cell count did it give?
Its cell count is 82.4%.

For `O=C(Nc1cc(C(F)(F)F)cc(C(F)(F)F)c1)c1cc(Cl)ccc1O` + C[As](C)SC[C@H](NC(=O)CC[C@H](N)C(=O)O)C(=O)NCC(=O)O [Darinaparsin] (first compound 0.016 µM, partner dose 0.4 µM), which cell count is on record?
Its cell count is 121%.

How did the cell count turn out when `COc1cc([C@@H]2c3cc4c(cc3[C@@H](O[C@@H]3O[C@@H]5CO[C@@H](C)O[C@H]5[C@H](O)[C@H]3O)[C@H]3COC(=O)[C@H]23)OCO4)cc(OC)c1O` [etoposide] + C[As](C)SC[C@H](NC(=O)CC[C@H](N)C(=O)O)C(=O)NCC(=O)O [Darinaparsin] (first compound 0.02 µM, partner dose 0.4 µM) was run?
The cell count was 112%.

Which cell count does the source give for `Cc1cn(-c2cc(NC(=O)c3ccc(C)c(Nc4nccc(-c5cccnc5)n4)c3)cc(C(F)(F)F)c2)cn1` [nilotinib] + C[C@]12O[C@H](C[C@]1(O)CO)n1c3ccccc3c3c4c(c5c6ccccc6n2c5c31)CNC4=O [Lestaurtinib] (first compound 0.2 µM, partner dose 0.004 µM) here?
Its cell count is 104%.

For `Cn1cnc2c(F)c(Nc3ccc(Br)cc3Cl)c(C(=O)NOCCO)cc21` [selumetinib] + N.N.[Cl][Pt][Cl] [cisplatin] (first compound 0.015 µM, partner dose 1.6 µM), which cell count is on record?
The cell count was 85.6%.

For `Cc1ccc(Nc2nccc(N(C)c3ccc4c(C)n(C)nc4c3)n2)cc1S(N)(=O)=O` [Pazopanib] + Cn1cc(C2=C(c3cn(C4CCN(Cc5ccccn5)CC4)c4ccccc34)C(=O)NC2=O)c2ccccc21 [Enzastaurin] (first compound 0.4 µM, partner dose 0.8 µM), which cell count is on record?
The cell count was 94.3%.
